Results published in paper PMC4336329 (PLoS ONE, 2015).
About 14,000 (4.5%) of roughly 310,000 compounds showed an effect of 50% or more. Effects have a minus sign here. The list shows a part of the results.

Biological target: human ether-à-go-go-related gene (hERG) potassium channel (human, UniProt Q12809)
Experiment: primary screen, population patch clamp on CHO cells stably expressing hERG
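Also: peak tail current of the secondary pulse compared with the same well before compound.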

Sequence of human ether-à-go-go-related gene (hERG) potassium channel (Q12809 whole entry, looked up): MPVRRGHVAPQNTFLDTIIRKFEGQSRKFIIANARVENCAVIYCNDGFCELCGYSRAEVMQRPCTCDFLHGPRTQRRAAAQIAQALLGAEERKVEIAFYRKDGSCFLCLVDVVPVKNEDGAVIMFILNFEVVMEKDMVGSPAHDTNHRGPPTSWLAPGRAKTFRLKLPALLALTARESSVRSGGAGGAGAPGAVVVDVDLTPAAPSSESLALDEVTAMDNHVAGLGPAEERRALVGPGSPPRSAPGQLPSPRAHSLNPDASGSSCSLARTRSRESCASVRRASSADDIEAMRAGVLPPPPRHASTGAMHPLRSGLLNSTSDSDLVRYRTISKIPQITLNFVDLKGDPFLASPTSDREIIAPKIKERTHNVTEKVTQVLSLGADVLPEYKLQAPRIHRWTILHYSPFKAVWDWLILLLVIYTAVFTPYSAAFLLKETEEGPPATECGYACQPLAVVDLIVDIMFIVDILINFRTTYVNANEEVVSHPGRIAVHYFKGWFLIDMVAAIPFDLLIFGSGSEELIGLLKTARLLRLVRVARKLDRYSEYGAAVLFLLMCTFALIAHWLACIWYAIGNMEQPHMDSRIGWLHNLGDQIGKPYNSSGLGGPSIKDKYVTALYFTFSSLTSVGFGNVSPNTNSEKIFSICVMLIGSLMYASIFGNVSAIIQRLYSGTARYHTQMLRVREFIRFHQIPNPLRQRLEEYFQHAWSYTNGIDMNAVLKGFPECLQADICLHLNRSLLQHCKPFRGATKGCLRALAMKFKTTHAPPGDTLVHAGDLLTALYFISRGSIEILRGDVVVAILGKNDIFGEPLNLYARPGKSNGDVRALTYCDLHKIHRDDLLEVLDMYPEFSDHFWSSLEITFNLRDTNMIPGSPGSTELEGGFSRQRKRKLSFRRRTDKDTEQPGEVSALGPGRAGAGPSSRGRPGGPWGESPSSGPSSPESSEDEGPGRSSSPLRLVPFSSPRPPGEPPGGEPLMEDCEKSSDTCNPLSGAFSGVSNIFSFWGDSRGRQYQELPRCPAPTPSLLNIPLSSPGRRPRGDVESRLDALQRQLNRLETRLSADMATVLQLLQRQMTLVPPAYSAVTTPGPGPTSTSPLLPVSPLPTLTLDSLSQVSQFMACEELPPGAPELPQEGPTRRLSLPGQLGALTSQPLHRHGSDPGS

SMILES	hERG current change (%, negative = inhibition) at 10uM [%]
COc1cccc(C(=O)N/N=C(\C)c2ccc(NC(=O)Cc3ccccc3)cc2)c1OC	22.1
CCN(CC)C(c1ccc(F)cc1)c1nnnn1CC1CCCO1.Cl (stereo not drawn)	8.93
Cc1ccc2oc(C(=O)N(Cc3ccc(N(C)C)cc3)C3CCS(=O)(=O)C3)c(C)c2c1 (stereo not drawn)	-0.0732
Cn1c(=O)c2c(ncn2CC(=O)N/N=C/C=C\c2ccccc2[N+](=O)[O-])n(C)c1=O	-22.1
COc1ccc(S(=O)(=O)N/N=C(/C)c2ccncc2)c(OC)c1	-10.7
CCOc1ccc(OCCC(=O)OCC(=O)N2CCN(c3ccc(OC)cc3)CC2)cc1	6.92
CCC1CCCCN1C(=S)NC(=O)c1ccc([N+](=O)[O-])cc1 (stereo not drawn)	-41.7
COc1ccc(OC)c(N2C(=O)NC(=O)/C(=C/c3ccc([N+](=O)[O-])s3)C2=O)c1	12.9
Nn1cnnc1SCC(=O)N1CCc2ccccc2C1	-12.8
CCN(CC)C(=O)c1sc(NC(=O)C(C)C)c(C#N)c1C	7.98
COc1ccc(C)cc1N(CC(=O)NC1CCCC1)C(=O)CCC(=O)Nc1nc(C)cs1	-19
O=S(=O)(Nc1ccc(Cl)cn1)c1ccccc1	33.6
CCCc1nc(-c2ccccc2)c(-c2ccc(OC)c(OC)c2)c(=O)[nH]1	8.35
Cn1c(=O)cc(OCCCC(=O)NCc2ccc3c(c2)OCO3)c2ccccc21	-22.2
CCc1nnc(NC(=O)CCS(=O)(=O)Cc2ccccc2)s1	14.7
CC(NC(=S)Nc1cccc(F)c1)C(c1cccs1)N1CCOCC1 (stereo not drawn)	-7.64
COc1ccc(C2=NN3C(=O)c4c(ccc(OC)c4OC)C3C2)cc1 (stereo not drawn)	-2.8
O=Nc1[nH]c(=O)c(/C=C(\O)c2ccccc2)nc1NO	-2.19
CC(=O)C1=C(O)C(=O)N(Cc2ccccc2)C1c1ccc([N+](=O)[O-])cc1 (stereo not drawn)	13.7
CCOC(=O)C1=C(C)N(C)C(=O)NC1c1cccc(O)c1 (stereo not drawn)	13.7
Cc1nc2ccccn2c1C(=O)N/N=C/c1ccc(F)cc1	5.8

SMILES	hERG current change (%, negative = inhibition) at 10uM [%]
COc1cccc(/C=N/NC(=O)CC2C(=O)NN=C2C)c1O (stereo not drawn)	-19.6
CN(C(=O)CSc1nnc(N)s1)c1c(N)n(Cc2ccccc2)c(=O)[nH]c1=O	7.34
C[C@@H]1CC[C@]2(O[C@H](CCO)C[C@H](O)[C@H]2O)O1	3.14
CCOC(=O)c1ccccc1NC(=O)c1cccc([N+](=O)[O-])c1	12.5
CC1CN(c2ccc([N+](=O)[O-])nc2)CC(C)O1 (stereo not drawn)	-21.6
COc1ccc(OCCCCn2c(CO)nc3ccccc32)cc1	-24.5
O=C(O)CCCCCNC(=O)/C(=C\c1ccco1)NC(=O)c1ccco1	11.7
COc1ccc(CCNC(=O)CN2C(=O)COc3ccc(S(=O)(=O)N4CCCC4)cc32)cc1OC	12.7
CC1(C)Cc2c(sc3c2c(=N)n(Cc2ccco2)c(=O)n3CC(=O)Nc2ccccc2)CO1	-1.1
CN1CCN(S(=O)(=O)c2ccc(=O)[nH]c2)CC1	7.85
CCCCCn1c(=O)c(C(=O)Nc2cccc(C)n2)c(O)c2ccccc21	26.4
CCN1CCN(C(=O)/C=C/c2cccc(Cl)c2)CC1	-18.7
Cc1c(NC(=O)Nc2ccc(C(C)C)cc2)c(=O)n(-c2ccccc2)n1C	8.78
Cc1ccc(C(=O)NNC(=O)c2ccc(S(=O)(=O)N3CCOCC3)cc2)cc1	7.6
Cc1ccc(-c2nc3ccccc3nc2-c2ccccc2)cc1	23.7
CCOC(=O)/C(=N\Nc1ccccc1Cl)N1CCN(Cc2ccccc2)CC1	-7.16
O=C1CCC2(CC1)NC(=O)N(c1ccccc1)N2	15.9
CSc1ccccc1NC(=O)c1cc(-c2cccs2)on1	14.5
Cc1ccc2sc(N3CCN(C(=O)c4ccc([N+](=O)[O-])o4)CC3)nc2c1C	3.89
Cc1cccc(N(CC(=O)NCc2ccc3c(c2)OCO3)C(=O)CCC(=O)Nc2ccccn2)c1	5.31
CC(C)(O)CC[C@H](OC(=O)c1ccccc1)[C@](C)(O)[C@H]1CC[C@@]2(O)C3=CC(=O)[C@@H]4C[C@@H](O)[C@H](O)C[C@]4(C)C3CC[C@]12C (stereo partly drawn)	16.2
